According to PubChem BioAssay AID1745853 (National Center for Advancing Translational Sciences (NCATS), 2022):
The list shows a part of the results. The main result of the screen is listed elsewhere. These columns were measured beside it and carry no call.

How the values were obtained:
Test in all cases: Primary Screen for Target Class Profiling of Small Molecule Inhibitors of Methyltransferases
[1] = molecular target: Glycine N-methyltransferase (Homo sapiens) (UniProt Q14749); details: purified enzyme, MTase-Glo SAH luminescence; measured here: GNMT inhibition; at 40 µM; stronger effect = lower value
Procedure, shortened: (§1)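 Each enzyme was assayed with SAM and its substrate. SAH formation detected by MTase-Glo luminescence; single-point 40 uM screen[…].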

[2] = molecular target: Guanidinoacetate N-methyltransferase (Homo sapiens) (UniProt Q14353); details: purified enzyme, MTase-Glo SAH luminescence; measured here: GAMT inhibition; at 40 µM; stronger effect = lower value
Procedure, shortened: as §1

[3] = molecular target: Histamine N-methyltransferase (Homo sapiens) (UniProt P50135); details: purified enzyme, MTase-Glo SAH luminescence; measured here: HNMT inhibition; at 40 µM; stronger effect = lower value
Procedure, shortened: as §1

[4] = molecular target: Nicotinamide N-methyltransferase (Homo sapiens) (UniProt P40261); details: purified enzyme, MTase-Glo SAH luminescence; measured here: NNMT inhibition; at 40 µM; stronger effect = lower value
Procedure, shortened: as §1

[5] = molecular target: Phenylethanolamine N-methyltransferase (Homo sapiens) (UniProt P11086); details: purified enzyme, MTase-Glo SAH luminescence; measured here: PNMT inhibition; at 40 µM; stronger effect = lower value
Procedure, shortened: as §1
% is set by controls: 0 for no effect and ±100 for the full control effect.

Row | SMILES | activity change, negative = inhibition [1] | activity change, negative = inhibition [2] | activity change, negative = inhibition [3] | activity change, negative = inhibition [4] | activity change, negative = inhibition [5]
1 | CC1(C(=O)NC2CCCCC2)Cn2c(cc3ccccc32)C(=O)N1Cc1cccc(F)c1 (stereo unspecified) | -2.9% | 3.45% | 1.38% | 4.25% | 1.44%
2 | COc1ccccc1CNC(=O)CCc1nnc2n(Cc3ccccc3Cl)c(=O)c3ccccc3n12 | 0.869% | 0% | 7.85% | 7.17% | 0.962%
3 | O=C(c1cnc2n1CCN(CCc1ccccc1)CC2)N1CCC(c2ccccc2)CC1 | -2.06% | 2.5% | 1.24% | -10.4% | -1.34%
4 | COc1ccc(S(=O)(=O)N[C@H]2C[C@H]3C(=O)NC[C@@H](CCC(=O)NCc4ccccc4)N3C2)cc1 | -4.59% | -1.46% | 1.05% | -6.05% | -1.73%
5 | O=C(c1ccc(=O)[nH]n1)N1CCc2ncnc(N3CCOCC3)c2CC1 | -6.46% | -14% | -4.73% | -10.5% | -9.96%
6 | CCOc1ccc(N2C(=O)c3c(C(=O)OC)ncn3CC2(C)C(=O)NCc2ccccc2)cc1 (stereo unspecified) | 0.835% | 0% | 10.6% | -1.8% | 6.41%
7 | COc1ccc(CCNC(=O)c2ccc(CN3C(=O)CCn4nccc43)cc2)cc1OC | -21.3% | -15.9% | -9.14% | -12.3% | -33.4%
8 | O=C(NCc1ccc(F)cc1)c1ccc2c(=O)nc3c(-c4cccc(F)c4)n[nH]n3c2c1 | -17% | 1.47% | -3.67% | -12.5% | -4.13%
9 | CCC(C)NC(=O)CCn1ccc2cc(S(=O)(=O)N3CCCCC3)ccc21 (stereo unspecified) | 6.18% | 1.98% | 10.3% | 7.93% | 6.42%
10 | CCCn1c(=O)c2[nH]c(-c3ccc(OCC(=O)O)cc3)nc2n(CCC)c1=O | -2% | 1.64% | 11.3% | -14.7% | 2.71%
11 | CN(C)CCNC(=O)Cn1ccc2cc(S(=O)(=O)N3CCCCC3)ccc21 | 8.79% | 0.955% | -2.78% | 11% | 5.92%
12 | CC(C)CCn1c(=O)c2ccc(C(=O)NC(C)C)cc2n2c(=O)n(Cc3ccccc3)nc12 | -4.52% | -5.78% | 7.91% | -3.16% | -6.43%
13 | Cc1ccc(NC(=O)c2ncn3c2C(=O)N(C2CC2)C(C)(C(=O)NCc2ccc(F)cc2)C3)c(Cl)c1 (stereo unspecified) | 0.117% | 0.178% | 1.49% | 0.238% | 0.515%
14 | C=C1C(O)CC2C(C(=O)O)=COC(OC3OC(CO)C(O)C(O)C3OC(=O)/C=C\c3ccc(O)cc3)C12 (stereo unspecified) | 5.09% | 6.55% | 6.48% | -6.58% | 3.33%
15 | CN(C)CC[C@H](CSc1ccccc1)Nc1ccc(S(=O)(=O)NC(=O)c2ccc(N3CCN(Cc4ccccc4-c4ccc(Cl)cc4)CC3)cc2)cc1[N+](=O)[O-] | – | -38% | – | -73.5% | -63%
16 | O=C(CCc1nnc2n(Cc3ccccc3Cl)c(=O)c3ccccc3n12)N1CCC(Cc2ccccc2)CC1 | -5.4% | 0% | -1.27% | 9.41% | 1.69%
17 | CCN1C(=O)c2cc3ccccc3n2CC1(C)C(=O)NCC(=O)NCc1cccc(C)c1 (stereo unspecified) | -2.66% | 0% | 4.76% | -0.929% | -0.233%
18 | COc1ccc(OC)c(CN2C(=O)c3cc(-c4ccccc4)nn3CC2(C)C(=O)NCc2ccccc2)c1 (stereo unspecified) | 0.84% | 7.56% | 0.574% | -1.74% | -4.1%
19 | CC(=O)SCC[N+](C)(C)C | -0.483% | 8.56% | -3.8% | -0.212% | 10.3%
20 | COc1ccccc1CNC(=O)C1(C)Cn2nc(-c3ccccc3)cc2C(=O)N1Cc1ccc(SC)cc1 (stereo unspecified) | 7.41% | 0.936% | 8.64% | 0.095% | 2.6%

Row | SMILES | activity change, negative = inhibition [1] | activity change, negative = inhibition [2] | activity change, negative = inhibition [3] | activity change, negative = inhibition [4] | activity change, negative = inhibition [5]
21 | N#CC1(c2cccc(C(=O)Nc3cc(Oc4ccc5nc(NC(=O)C6CC6)sc5n4)ccc3F)c2Cl)CC1 | 2.94% | -31.5% | 5.55% | -46.9% | -18.4%
22 | CCCOc1ccccc1C(C)Nc1nc(-c2cccnc2)nc2c1CNC2 (stereo unspecified) | -30.5% | -24.3% | -37% | -36.1% | -15%
23 | CC(C)COC(=O)OCN1C(=O)CN(CCN2CC(=O)N(COC(=O)OCC(C)C)C(=O)C2)CC1=O | -12% | 5.34% | 0.531% | -5.3% | 3.67%
24 | CC1CC(C)CN(S(=O)(=O)c2ccc3c(c2)oc(=O)n3CC(=O)N2CCc3ccccc3C2)C1 (stereo unspecified) | -1.65% | 0.425% | -1.77% | 2.38% | -0.278%
25 | COCCN(C)C[C@H]1C[C@@H](CO)CN(C(=O)c2ccc(C)c(Cl)c2)C1 | -3.68% | 2.28% | 1.31% | 1.2% | 2.84%
26 | CN(c1ccc(NC(=O)Nc2ccc(OC(F)(F)F)cc2)cc1)c1ccnc(Nc2cccc(S(N)(=O)=O)c2)n1 | – | 6.9% | – | -5.06% | 5.62%
27 | Cc1nocc1C(=O)N1C[C@@H](CO)[C@H](c2ccccn2)C1 | -2.1% | -5.73% | 1.41% | -4.25% | -1.29%
28 | O=C(NC1CCCCC1)O[C@@H]1CO[C@H]2[C@@H]1OC[C@@H]2NS(=O)(=O)c1ccc(Cl)cc1 | -5.06% | -6.21% | -2.03% | -9.83% | -9.58%
29 | O=C(Nc1nc2ccccc2n1CCN1CCOCC1)c1cccc([N+](=O)[O-])c1 | 3.02% | 12.7% | 11.1% | -6.4% | 1.74%
30 | COc1ccc(OC)c(NC(=O)N2Cc3c(sc4c3CCCC4)-n3cccc3C2c2ccccc2)c1 (stereo unspecified) | -3.69% | -0.011% | -2.33% | -10.6% | -1.63%
31 | COc1ccc(C(=O)Cn2nc3n(CC(C)C)c(=O)c4ccccc4n3c2=O)cc1OC | 6.31% | 0% | 12.3% | 6.86% | 7.87%
32 | O=c1cc(N2CCN(c3cccc(C(F)(F)F)c3)CC2)[nH]c(=O)n1C1CCCCC1 | 5.38% | -2.95% | 2.91% | -17.5% | -4.71%
33 | Cn1c(=O)n(C)c2cc(S(=O)(=O)N3CCC(Cc4ccccc4)CC3)ccc21 | 10.3% | 1.24% | 5.76% | -1.49% | 4.29%
34 | COC(=O)C1=C(C)N=C2SC=C(CC(=O)NCCCN3CCCC3=O)N2C1c1ccccc1 (stereo unspecified) | -2.32% | -1.02% | -3.65% | -4.83% | -1.23%
35 | O=[N+]([O-])c1ccc2c(c1)S(=O)(=O)C=C2 | -16.6% | 11.2% | 11.4% | -5.6% | 0.948%
36 | CCn1ccc(C(=O)N2CC3CC(C2)[C@H]2CCCC(=O)N2C3)n1 (stereo partly specified) | 1.22% | -0.6% | 0.504% | 2.23% | 0.359%
37 | O=S(=O)(NCCn1c(-c2ccc(F)cc2)nc2ccccc21)c1ccc(Br)cc1 | -3.39% | 0% | 4.06% | -5.62% | 7.99%
38 | CCCCN1C(=O)c2cc(C(=O)NCCN3CCN(CC)CC3)nn2CC1(C)C(=O)NC1CCCC1 (stereo unspecified) | 4.17% | 0.613% | 4.89% | 1.33% | 3.54%
39 | CCCn1c(=O)c2ccccc2n2c(=O)n(Cc3ccc(F)cc3)nc12 | 4.15% | 0.957% | 10.8% | -7.91% | 8.97%
40 | Cc1ccccc1Cn1nc2n(c1=O)CCCCC2 | -2.58% | -2.45% | 0.485% | -4.82% | 7.63%

Row | SMILES | activity change, negative = inhibition [1] | activity change, negative = inhibition [2] | activity change, negative = inhibition [3] | activity change, negative = inhibition [4] | activity change, negative = inhibition [5]
41 | CC(C)CCNC(=O)C1c2c(n(C)c3ccccc23)SCC(=O)N1CCc1ccc(Cl)cc1 (stereo unspecified) | 6.96% | 5.86% | 0.463% | -5.15% | 3.95%
42 | CC1(C(=O)NC2CCCC2)Cn2c(ccc2-c2ccco2)C(=O)N1CCc1ccccc1 (stereo unspecified) | -7.85% | -10.3% | 4.91% | -13.2% | -6.26%
43 | CC(C)CCNC(=O)C1c2c(n(C)c3ccccc23)SCC(=O)N1Cc1cccs1 (stereo unspecified) | 4.18% | 0% | -4.61% | -4.54% | -1.01%
44 | CCOc1ccc(CCN2C(=O)c3cc(C(=O)OC)nn3CC2(C)C(=O)NC2CCCCCC2)cc1 (stereo unspecified) | 0.27% | 1.54% | -8.91% | 1.25% | 2.32%
45 | O=C(NCc1cccc(C(F)(F)F)c1)C1(CCO)CC12CCN(c1ncccn1)CC2 (stereo unspecified) | -5.21% | -3.28% | -1.7% | -4.27% | 0.588%
46 | O=S(=O)(C1CC1)N1CCn2c(nnc2-c2cncc(Br)c2)C1 | -1.85% | -0.203% | -2.75% | -2.48% | -2.64%
47 | C=C1CC2C3(C)C(O)CC(=O)C(C)(C)C3C(O)C(OC(C)=O)C2(C)C2C(=O)OC(C)(C(=O)OC)C(=O)C12C (stereo unspecified) | 1.14% | -7.62% | 2.88% | -15.7% | -3.02%
48 | CCOc1ccc(C2c3cccn3-c3sc4c(c3CN2C(=O)Nc2ccc(F)cc2F)CCCC4)cc1 (stereo unspecified) | 4.89% | 2.19% | 1.86% | -9.3% | -0.928%
49 | COCCN1CCC(C(=O)NO)(S(=O)(=O)c2ccc(Oc3ccc(OC(F)(F)F)cc3)cc2)CC1 | 8.45% | 3.47% | 3.31% | -13.9% | -1.32%
50 | O=c1[nH]c2ccccc2n1C1CCN(S(=O)(=O)c2ccc(F)cc2)CC1 | -3.89% | 4.94% | 6.69% | 9.48% | -1.1%
51 | COc1ccc(-c2cc3n(n2)CC(C)(C(=O)NCc2ccccc2)N(c2ccc(C)c(C)c2)C3=O)cc1 (stereo unspecified) | 7.95% | 1.83% | 10.4% | 10.2% | 2.79%
52 | Cn1c(=O)n(C)c2cc(S(=O)(=O)N(Cc3ccccc3)C(=O)C3CCCCC3)ccc21 | -0.289% | 0% | -0.605% | -25.6% | -3.35%
53 | Nc1ccc(-c2ccc3ccccc3n2)cc1 | -9.19% | 4.37% | 4.44% | -6.51% | -3.16%
54 | CCc1cc2c(cc3n2CC(C)(C(=O)NC2CCC(C)CC2)N(CCCOC)C3=O)s1 (stereo unspecified) | 0.233% | 0.337% | 2.78% | -9.02% | -0.372%
55 | CC1CCC2(C(=O)O)CCC3(C)C(=CCC4C5(C)C[C@@H](O)[C@@H](O)C(C)(CO)C5CCC43C)C2C1(C)O (stereo partly specified) | 0.751% | -7% | 5.14% | -14.6% | -10.1%
56 | CC(=O)N1CCN(C(=O)c2ccc3oc(-c4ccccn4)nc3c2)CC1 | -1.7% | -2.77% | 0.99% | -6.08% | -1.36%
57 | CCc1cccc(N2C(=O)c3cc4ccccc4n3CC2(C)C(=O)NCCC(C)C)c1 (stereo unspecified) | 1.35% | 2.24% | 3.21% | -3.68% | -1.31%
58 | CC(C)Cn1c(=O)c2ccc(C(=O)NC3CCCCC3)cc2n2c(SCC(N)=O)nnc12 | 1.26% | 0% | 8.19% | -1.27% | 2.33%
59 | O=C1CCCCC(CNC(=O)c2cccc(F)c2)N1 (stereo unspecified) | -1.38% | -0.184% | 1.19% | -4.39% | -2.18%
